Measured values taken from PubChem BioAssay AID624417 (National Center for Advancing Translational Sciences (NCATS), 2012).
About 6,400 (1.6%) of roughly 410,000 compounds were called active. Inconclusive results, whose numbers are uncertain, are shown with a selection of clear calls. Calls follow the shape of the dose curve; as a rule, active = well fitted inhibition curve with a large enough effect; inconclusive = small, poorly fitted or top-dose-only effect; inactive = no such curve, though single readings can be large or run the other way. No potency is given beside an inconclusive call; the fits are too rough.
Also: nearly all actives have a fitted effect of over 55% in size.
Potency is read from the fitted curve at half-maximal effect; tags tell the direction and shape of the fitted curve.

Each compound was assayed against Glucagon-like peptide 1 receptor (Homo sapiens) (UniProt P43220) (assay: qHTS of GLP-1 Receptor Inverse Agonists (Inhibition Mode)). Conditions: HEK293 GLP-1R CRE-luciferase, luminescence, 24 h, GLP-1R form is constitutively active; series mostly up to 38.3 µM.
Sequence of UniProt P43220 (P43220 whole entry, looked up): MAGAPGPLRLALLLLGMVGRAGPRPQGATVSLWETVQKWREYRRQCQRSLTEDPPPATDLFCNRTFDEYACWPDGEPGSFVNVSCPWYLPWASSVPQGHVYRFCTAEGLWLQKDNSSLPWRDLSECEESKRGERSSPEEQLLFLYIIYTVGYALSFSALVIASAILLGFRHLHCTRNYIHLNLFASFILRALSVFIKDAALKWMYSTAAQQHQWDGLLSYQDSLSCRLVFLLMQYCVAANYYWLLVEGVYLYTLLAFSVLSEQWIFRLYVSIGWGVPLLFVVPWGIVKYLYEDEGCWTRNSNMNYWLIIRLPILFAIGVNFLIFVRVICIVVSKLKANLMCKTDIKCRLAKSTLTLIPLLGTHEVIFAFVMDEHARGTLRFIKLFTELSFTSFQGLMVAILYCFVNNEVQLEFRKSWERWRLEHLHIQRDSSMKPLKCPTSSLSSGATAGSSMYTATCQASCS
Method in brief: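 Readout was luciferase luminescence, measured 12 min after detection reagent at room temperature. Beforehand, GLP-1R reporter HEK293 cells had sat 12 h, then received compounds for 24 hr at 37 deg C.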
In the case of `CN(Cc1ccccc1)C(=O)CN1C(=O)CSc2ccc(S(=O)(=O)N3CCOCC3)cc21`, the Potency is reported as “inactive”. For `CN1CCN(c2ncnc3c2ncn3[C@H]2CN(Cc3ccc(Cl)cc3)C[C@@H](CO)O2)CC1`, the Potency was “inactive”. For `O=C(C(Cc1ccccc1)n1cccc1)N1CCN(c2ncccn2)CC1` (stereo unspecified), the Potency was inconclusive [inhibitor, single point]. `COc1ccc(NC(=O)CCS(=O)(=O)c2nc(-c3cccs3)cc(C(F)(F)F)n2)cc1OC` was tested, and the Potency was inconclusive [inhibitor, single point]. In the case of `COc1ccc(N(C(=O)/C=C\C(=O)Nc2ccc(Cl)cc2)C(C(=O)NCc2ccco2)c2ccc(C)cc2)cc1` (stereo unspecified), the Potency is reported as inconclusive [inhibitor, partial curve, poor fit]. In the case of `O=C(NCc1ccco1)c1cc(-c2ccccc2)nc2ccccc12`, the Potency is reported as inconclusive [inhibitor, single point]. In the case of `CC1=C(C(=O)N(C)C)CC(CC(=O)NCCCCc2ccccc2)C(=O)N1Cc1ccc(C(C)(C)C)cc1` (stereo unspecified), the Potency is reported as inconclusive [inhibitor, partial curve, poor fit]. In the case of `COc1ccccc1NC(=O)C(=O)NCCC1CCCCN1S(=O)(=O)c1ccc(F)cc1` (stereo unspecified), the Potency is reported as “inactive”. For `CCC(C(=O)NCCc1c[nH]c2ccc(C)cc12)c1ccccc1` (stereo unspecified), the Potency was inconclusive [inhibitor, single point]. With `COc1ccc2c(c1)c1c(c(=O)n(-c3ccc(OC)c(OC)c3)c(=O)n1Cc1ccccc1C)n2C` the Potency was “inactive”. In the case of `Cc1cc(OCc2cc(C(=O)N(C)CCCN3CCOCC3)no2)cc(C)c1Cl`, the Potency is reported as inconclusive [inhibitor, single point]. In the case of `CC(=O)c1cccc(NS(=O)(=O)c2ccc3[nH]c4c(c3c2)CCCCCC4)c1`, the Potency is reported as inconclusive [inhibitor, single point]. With `CCCCN(CCCC)CCNC(=O)c1cn(C)c2ccc(S(=O)(=O)N3CCOCC3)cc2c1=O` the Potency was “inactive”. For `CC(=O)C1=C(c2ccc(Br)cc2)C(=O)c2ccccc2C1=O`, the Potency was inconclusive [inhibitor, full curve, poor fit]. With `COc1cccc(NC(=O)CN(C)C(=O)c2cccc(S(=O)(=O)Nc3ccc(C)cc3)c2)c1` the Potency was inconclusive [inhibitor, single point]. With `O=C(CSc1nnc(-c2ccc(O)cc2)n1Cc1ccco1)N1CCc2ccccc2C1` the Potency was inconclusive [inhibitor, single point]. In the case of `Cc1ccc(OCC(=O)NC2CC(C)(C)NC(C)(C)C2)c(C)c1`, the Potency is reported as inconclusive [inhibitor, full curve, poor fit]. `Cc1c(Cl)cccc1NS(=O)(=O)c1ccc2[nH]cc(C(=O)NC3CCCC3)c(=O)c2c1` was tested, and the Potency was inconclusive [inhibitor, partial curve, poor fit]. In the case of `Cc1ccc2c(c1)c1c(c(=O)n(-c3ccccc3)c(=O)n1CC(=O)N1CCCC1)n2C`, the Potency is reported as “inactive”. With `Cc1ccc(Nc2ncc3c(n2)CC(c2ccco2)CC3=O)c(C)c1` (stereo unspecified) the Potency was inconclusive [inhibitor, partial curve, poor fit]. With `O=C(c1ccc(F)cc1)N1CCN2C(=O)c3ccccc3C12c1ccc(Cl)cc1` (stereo unspecified) the Potency was inconclusive [inhibitor, partial curve, poor fit]. With `CN(c1ccc(C(=O)NCCC2=CCCCC2)cc1)S(C)(=O)=O` the Potency was inconclusive [inhibitor, single point]. `c1ccc(Cn2c(SCc3cn4cccnc4n3)nnc2-c2ccco2)cc1` was tested, and the Potency was “inactive”. In the case of `CC1=C(C(=O)OCc2ccccc2)C(c2ccc(Cl)cc2Cl)NC(=O)N1CCCCCC(=O)O` (stereo unspecified), the Potency is reported as inconclusive [inhibitor, single point]. For `O=C(OCc1cn([C@@H]2CN(C(=O)c3cccs3)[C@@H](c3ccc(Cl)cc3)C[C@H]2O)nn1)c1ccccc1`, the Potency was “inactive”. `CC(C)C[C@H](NC(=O)c1nc[nH]c1C(=O)N[C@@H](CCCCNC(=O)OC(C)(C)C)C(=O)OC(C)(C)C)C(=O)OCc1ccccc1` was tested, and the Potency was inconclusive [inhibitor, full curve, poor fit]. With `CCc1ccc2oc(C(=O)N3CCN(c4ccccc4OC)CC3)cc(=O)c2c1` the Potency was inconclusive [inhibitor, partial curve, poor fit]. `COc1ccc(CCNC(=O)Cn2cc(C(=O)c3ccccc3)c(=O)c3ccc(C)nc32)cc1OC` was tested, and the Potency was “inactive”. With `CN1CCN(c2ccc(NC(=O)CSc3ccccc3)cc2F)CC1` the Potency was inconclusive [inhibitor, single point]. `COc1ccc(C(C)=O)cc1COc1ccc(F)cc1` was tested, and the Potency was inconclusive [inhibitor, single point]. In the case of `CCN(CC)CCNC(=O)C1c2ccccc2C(=O)N(C)C1c1cn(C)c2ccccc12` (stereo unspecified), the Potency is reported as inconclusive [inhibitor, single point]. In the case of `N#Cc1ccc(OCC(=O)N2CCN(S(=O)(=O)c3ccc(Cl)s3)CC2)cc1`, the Potency is reported as inconclusive [inhibitor, single point]. With `Cc1ccc(NC(=O)CCn2c(=O)c3cccn3c3ccccc32)c(Cl)c1` the Potency was “inactive”. With `COc1ccc(NC(=S)Nc2cc(C)[nH]n2)cc1Cl` the Potency was “inactive”. In the case of `Cc1cccc(C)c1OCc1cc(C(=O)N2CCC(C3CCCCC3)C2)no1` (stereo unspecified), the Potency is reported as inconclusive [inhibitor, single point]. For `COc1ccc(NCc2nnc(SCC(=O)NCc3ccco3)n2-c2ccccc2OC)cc1`, the Potency was inconclusive [inhibitor, single point]. In the case of `CCOC(=O)C1CCN(c2cc3c(cc2NC(=O)c2ccccc2OCC)n(C)c(=O)n3C)CC1`, the Potency is reported as inconclusive [inhibitor, single point]. With `NC(=O)c1cccc(-c2cc(Nc3ccc(OC(F)(F)F)cc3)ncn2)c1` the Potency was inconclusive [inhibitor, partial curve, poor fit]. For `COc1ccc(Nc2nc(NC(C)(C)C)nc(N3CCOCC3)n2)c(OC)c1`, the Potency was inconclusive [inhibitor, single point]. With `O=S(=O)(c1ccc(Br)cc1)c1nc(-c2ccco2)oc1SCc1ccccc1Cl` the Potency was inconclusive [inhibitor, partial curve, poor fit]. With `Cc1cc(C)cc(NC(=O)c2cccc(N3C(=O)C4C5C=CC(C5)C4C3=O)c2)c1` (stereo unspecified) the Potency was inconclusive [inhibitor, partial curve, poor fit]. With `CC(C)(C)Nc1nc(OCC#N)nc(N2CCCCC2)n1` the Potency was inconclusive [inhibitor, single point]. For `CCCCOc1ccc(CNC(=O)CN2CCSc3ccccc32)cc1`, the Potency was inconclusive [inhibitor, single point]. With `N#Cc1ccc(Oc2ccc(C(F)(F)F)cc2NC(=O)c2ccc(F)cc2)cc1` the Potency was inconclusive [inhibitor, single point]. For `CCn1cc(C(=O)N2CCN(c3cccc(C)c3C)CC2)c(=O)c2ccc(C)nc21`, the Potency was inconclusive [inhibitor, full curve, poor fit]. With `CCOc1ccc2nc(SC3CC(=O)N(c4ccccc4)C3=O)sc2c1` (stereo unspecified) the Potency was “inactive”. For `CCCCN(C(C)=O)c1ccc2c(c1)C1CC2CCN1C(=O)OCc1ccccc1` (stereo unspecified), the Potency was inconclusive [inhibitor, partial curve, poor fit]. `O=C(Nc1ccc2oc(=O)ccc2c1)c1ccco1` was tested, and the Potency was “inactive”. In the case of `CCCCCC(=O)N1C[C@H](O)[C@@H](n2cc(COC(=O)c3ccccc3)nn2)C[C@@H]1c1ccc(C)cc1`, the Potency is reported as inconclusive [inhibitor, partial curve, poor fit]. `COc1ccc(N2CCN(C(CNC(=O)OCc3ccccc3)c3ccco3)CC2)cc1` (stereo unspecified) was tested, and the Potency was inconclusive [inhibitor, partial curve, poor fit]. In the case of `Cc1ccc(CCc2nnc(SCC(=O)Nc3cc(Cl)ccc3Cl)n2-c2ccccc2)o1`, the Potency is reported as inconclusive [inhibitor, partial curve, poor fit]. With `Cc1[nH]c(N=Nc2ccccc2)nc1N=Nc1ccccc1` the Potency was inconclusive [inhibitor, single point]. For `Cc1onc(-c2ccccc2)c1C(=O)NNC(=S)NC(=O)c1ccc2c(c1)OCO2`, the Potency was inconclusive [inhibitor, single point]. In the case of `COc1ccc(/C=N/NC(=S)NCc2ccccc2)cc1OC`, the Potency is reported as inconclusive [inhibitor, single point]. For `Cc1cccc(NC(=O)c2cccc([N+](=O)[O-])c2O)c1C`, the Potency was inconclusive [inhibitor, single point]. For `COc1cccc(C(=O)NC2CC3CCCC(C2)N3S(=O)(=O)c2ccccc2)c1` (stereo unspecified), the Potency was inconclusive [inhibitor, partial curve, poor fit]. `COc1ccc(C)cc1NC(=O)CN(Cc1nnc(-c2ccc(Cl)cc2)o1)C1CCCC1` was tested, and the Potency was inconclusive [inhibitor, partial curve, poor fit]. In the case of `CC(C)(C)c1cc(Cl)ccc1OCCn1ccnc1`, the Potency is reported as inconclusive [inhibitor, single point]. With `CCn1c(CN(C)c2ccccc2)nc2ccccc21` the Potency was inconclusive [inhibitor, partial curve, poor fit]. `Cc1nn(-c2ccccn2)c2c1C(=O)CC(C)(C)C2Br` (stereo unspecified) was tested, and the Potency was inconclusive [inhibitor, single point]. In the case of `Cc1ccc(NC(=O)c2ncn(CC(=O)N[C@H](C)c3cccc4ccccc34)n2)cc1C`, the Potency is reported as inconclusive [inhibitor, partial curve, poor fit].
